The target of experiment [1] is T1, human PD-L2, histidine-tagged recombinant (human, UniProt Q9BQ51 20-220).
T1 chain: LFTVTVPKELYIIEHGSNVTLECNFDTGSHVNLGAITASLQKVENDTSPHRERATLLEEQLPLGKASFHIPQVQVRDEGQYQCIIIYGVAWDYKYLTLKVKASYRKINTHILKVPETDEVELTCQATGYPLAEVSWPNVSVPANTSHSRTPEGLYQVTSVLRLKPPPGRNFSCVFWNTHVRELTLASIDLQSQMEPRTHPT
Put plainly: SPR.

Experiment [2] concerns the target T2, human OX40, histidine-tagged recombinant (human, UniProt P43489 29-214).
T2 chain: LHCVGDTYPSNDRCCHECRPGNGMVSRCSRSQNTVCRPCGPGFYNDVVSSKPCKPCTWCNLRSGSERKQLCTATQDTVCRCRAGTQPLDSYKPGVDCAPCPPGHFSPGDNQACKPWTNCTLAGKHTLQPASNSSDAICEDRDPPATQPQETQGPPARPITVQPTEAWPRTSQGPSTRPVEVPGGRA
Put plainly: SPR. For orientation: Surface plasmon resonance follows binding to a sensor surface in real time, without labels.

B1: human PD1-Fc-OX40L (Fc fusion)
chain: [omitted - about 400 residues with a human IgG4 Fc]QVSHRYPRIQSIKVQFTEYKKEKGFILTSQKEDEIMKVQNNSVIINCDGFYLISLKGYFSQEVNISLHYQKDEEPLFQLKKVRSVNSLMVASLTYKDKVYLNVTTDNTSLDDFHVNGGELILIHQNPGEFCVL
On to B1, for which the koff (commonly the rate constant with which the complex falls apart) in experiment [1] was 6.7e-05 s⁻¹; in experiment [2], 1.9e-05 s⁻¹.

The values above are taken from PMC6299665 (2018).
